Data taken from patent publication US9199944B2 (priority 2012, dated 2015).

Legend:
Assay in all cases: cells
[1] = test system: Hs746T (stomach cancer cells); conditions: Homo sapiens, 72 h, read-out: Hs746TCP GI50 (μM)
[2] = test system: H1993 (lung cancer cells); conditions: Homo sapiens, NCI-H1993, 72 h, read-out: H1993CP GI50 (μM)
[3] = test system: H2228 (lung cancer cells); conditions: Homo sapiens, NCI-H2228, 72 h, read-out: H2228CP GI50 (μM)
[4] = test system: H3122 (lung cancer cells); conditions: Homo sapiens, NCI-H3122, 72 h, read-out: H3122CP GI50 (μM)

| SMILES | GI50 [1] | GI50 [2] | GI50 [3] | GI50 [4] |
| --- | --- | --- | --- | --- |
| COc1cc(N2CCN(C(C)=O)CC2)ccc1Nc1ncc(C(F)(F)F)c(Nc2ccc(N3CCN(C(=O)CO)CC3)cc2OC)n1 [Example 58, 1-(4-(4-((2-((4-(4-acetylpiperazin-1-yl)-2-methoxyphenyl)amino)-5-(trifluoromethyl)pyrimidin-4-yl)amino)-3-methoxyphenyl)piperazin-1-yl)-2-hydroxyethanone] | 1.86 µM | 8.26 µM | 0.143 µM | 0.0014 µM |
| COc1cc(N2CCN(C(=O)CO)CC2)ccc1Nc1ncc(Cl)c(Nc2ccc(N3CCN(C(C)=O)CC3)cc2OC)n1 [Example 83, 1-(4-(4-((4-((4-(4-acetylpiperazin-1-yl)-2-methoxyphenyl)amino)-5-chloropyrimidin-2-yl)amino)-3-methoxyphenyl)piperazin-1-yl)-2-hydroxyethanone] | 0.67 µM | > 10 µM | 0.064 µM | 0.0008 µM |
| COc1cc(N2CCN(C(C)=O)CC2)ccc1Nc1ncc(Cl)c(Nc2ccc(N3CCN(C(=O)OC(C)(C)C)CC3)cc2OC)n1 [Example 15, tert-butyl 4-(4-(2-(4-(4-acetylpiperazin-1-yl)-2-methoxyphenylamino)-5-chloropyrimidin-4-ylamino)-3-methoxyphenyl)piperazin-1-carboxylate] | 3.74 µM | 8.86 µM | 0.692 µM | 0.918 µM |
| COc1cc(N2CCN(C(C)=O)CC2)ccc1Nc1ncc(C(F)(F)F)c(Nc2ccc(N3CCN(C)CC3)cc2OC)n1 [Example 59] | 2.27 µM | 9.34 µM | 0.351 µM | 0.0009 µM |
| CC(=O)N1CCN(c2ccc(Nc3ncc(C(F)(F)F)c(Nc4ccc(N5CCN(C(C)=O)CC5)cc4OC(F)F)n3)c(OC(F)F)c2)CC1 [Example 73] | 0.37 µM | 7.92 µM | 8.09 µM | 0.941 µM |
| COc1cc(N2CCN(C(=O)OC(C)(C)C)CC2)ccc1Nc1ncc(C(F)(F)F)c(Nc2ccc(N3CCN(C(C)=O)CC3)cc2OC)n1 [Example 62, tert-butyl-4-(4-((4-((4-(4-acetylpiperazin-1-yl)-2-methoxyphenyl)amino)-5-(trifluoromethyl)pyrimidin-2-yl)amino)-3-methoxyphenyl)piperazin-1-carboxylate] | 2.19 µM | 2.46 µM | 0.72 µM | 0.22 µM |
| COc1cc(N2CCNCC2)ccc1Nc1ncc(C(F)(F)F)c(Nc2ccc(N3CCN(C(C)=O)CC3)cc2OC)n1 [Example 63, 1-(4-(3-methoxy-4-((2-((2-methoxy-4-(piperazin-1-yl)phenyl)amino)-5-(trifluoromethyl)pyrimidin-4-yl)amino)phenyl)piperazin-1-yl)ethanone] | 3.13 µM | 2.38 µM | 0.132 µM | 0.0009 µM |
| COc1cc(N2CCN(CCO)CC2)ccc1Nc1ncc(C(F)(F)F)c(Nc2ccc(N3CCN(C(C)=O)CC3)cc2OC)n1 [Example 68, 1-(4-(4-((2-((4-(4-(2-hydroxyethyl)piperazin-1-yl)-2-methoxyphenyl)amino)-5-(trifluoromethyl)pyrimidin-4-yl)amino)-3-methoxyphenyl)piperazin-1-yl)ethanone] | 2.25 µM | 3.36 µM | 0.119 µM | 0.0003 µM |
| CCNC(=O)N1CCN(c2ccc(Nc3nc(Nc4ccc(N5CCN(C(C)=O)CC5)cc4OC)ncc3F)c(OC)c2)CC1 [Example 31, 4-(4-(2-(4-(4-acetylpiperazin-1-yl)-2-methoxyphenylamino)-5-fluoropyrimidin-4-ylamino)-3-methoxyphenyl)-N-ethylpiperazin-1-carboxyamide] | > 10 µM | 3.68 µM | 0.492 µM | 0.196 µM |
| CCOc1cc(N2CCN(C(C)=O)CC2)ccc1Nc1nc(Nc2ccc(N3CCN(C(C)=O)CC3)cc2)ncc1Cl [Example 6, 1-(4-(4-(4-(4-(4-acetylpiperazin-1-yl)-2-ethoxyphenylamino)-5-chloropyrimidin-2-ylamino)phenyl)piperazin-1-yl)ethanone] | 0.9 µM | 0.93 µM | 0.36 µM | 0.22 µM |
| CCCOc1cc(N2CCN(C(C)=O)CC2)ccc1Nc1nc(Nc2ccc(N3CCN(C(C)=O)CC3)cc2OC)ncc1Cl [Example 2, 1-(4-(4-(2-(4-(4-acetylpiperazin-1-yl)-2-methoxyphenylamino)-5-chloropyrimidin-4-ylamino)-3-propoxyphenyl)piperazin-1-yl)ethanone] | 2.86 µM | 7.25 µM | 1.42 µM | 0.874 µM |
| COc1cc(N2CCN(C(C)=O)CC2)ccc1Nc1ncc(Cl)c(Nc2ccc(N3CCN(C(C)=O)CC3)cc2)n1 [Example 8, 1-(4-(4-(2-(4-(4-acetylpiperazin-1-yl)-2-methoxyphenylamino)-5-chloropyrimidin-4-ylamino)phenyl)piperazin-1-yl)ethanone] | 2.88 µM | 9.14 µM | 2.06 µM | 0.81 µM |
| CCOc1cc(N2CCN(C(C)=O)CC2)ccc1Nc1nc(Nc2ccc(N3CCN(C(C)=O)CC3)cc2OC)ncc1Cl [Example 1, 1-(4-(4-(4-(4-(4-acetylpiperazin-1-yl)-2-ethoxyphenylamino)-5-chloropyrimidin-2-ylamino)-3-methoxyphenyl)piperazin-1-yl)ethanone] | 3.43 µM | 6.91 µM | 1.59 µM | 0.96 µM |
| CCOc1cc(N2CCN(C(C)=O)CC2)ccc1Nc1nc(Nc2ccc(N3CCN(C(C)=O)CC3)cc2OC)ncc1F [Example 29, 1-(4-(4-(4-(4-(4-acetylpiperazin-1-yl)-2-ethoxyphenylamino)-5-fluoropyrimidin-2-ylamino)-3-methoxyphenyl)piperazin-1-yl)ethanone] | > 10 µM | 9.85 µM | 0.411 µM | 0.347 µM |
| COc1cc(N2CCN(C(C)=O)CC2)ccc1Nc1ncc(F)c(Nc2ccc(N3CCN(C)CC3)cc2OC(F)F)n1 [Example 38, 1-(4-(4-(4-(2-(difluoromethoxy)-4-(4-methylpiperazin-1-yl)phenylamino)-5-fluoropyrimidin-2-ylamino)-3-methoxyphenyl)piperazin-1-yl)ethanone] | 7.84 µM | > 10 µM | 1.28 µM | 0.0091 µM |
| CCNC(=O)N1CCN(c2ccc(Nc3nc(Nc4ccc(N5CCN(C(C)=O)CC5)cc4OC)ncc3C(F)(F)F)c(OC)c2)CC1 [Example 57, 4-(4-((2-((4-(4-acetylpiperazine)-2-methoxyphenyl)amino)-5-(trifluoromethyl)pyrimidin-4-yl)amino)-3-methoxyphenyl)-N-ethylpiperazin-1-carboxyamide] | 0.33 µM | 0.98 µM | 0.037 µM | 0.001 µM |
| COc1cc(N2CCN(C(C)=O)CC2)ccc1Nc1ncc(C(F)(F)F)c(Nc2ccc(N3CCNCC3)cc2OC)n1 [Example 56, 1-(4-(3-methoxy-4-((4-((2-methoxy-4-(piperazin-1-yl)phenyl)amino)-5-(trifluoromethyl)pyrimidin-2-yl)amino)phenyl)piperazin-1-yl)ethanone] | 2.74 µM | 2.33 µM | 0.127 µM | 0.001 µM |
| CCCOc1cc(N2CCN(C(C)=O)CC2)ccc1Nc1nc(Nc2ccc(N3CCN(C(C)=O)CC3)cc2)ncc1Cl [Example 4, 1-(4-(4-(4-(4-(4-acetylpiperazin-1-yl)-2-propoxyphenylamino)-5-chloropyrimidin-2-ylamino)phenyl)piperazin-1-yl)ethanone] | 1.38 µM | 3.47 µM | 0.32 µM | 0.19 µM |
| COc1cc(N2CCN(C(=O)CO)CC2)ccc1Nc1ncc(C(F)(F)F)c(Nc2ccc(N3CCN(C(=O)CO)CC3)cc2OC)n1 [Example 72, 1,1′-(4,4′-(((5-(trifluoromethyl)pyrimidin-2,4-diyl)bis(azanediyl))bis(3-methoxy-4,1-phenylene))bis(piperazin-4,1))bis(2-hydroxyethanone)] | 3.16 µM | 8.85 µM | 1.14 µM | 0.0081 µM |
| COc1cc(N2CCN(C(C)=O)CC2)ccc1Nc1ccnc(Nc2ccc(N3CCN(C(C)=O)CC3)cc2OC)n1 [Example 19, 1,1′-(4,4′-(4,4′-(pyrimidin-2,4-diylbis(azanediyl))bis(3-methoxy-4,1-phenylene))bis(piperazin-4,1-diyl))diethanone] | > 10 µM | > 10 µM | 0.961 µM | 1.1 µM |
| COc1cc(N2CCN(C(C)=O)CC2)ccc1Nc1ncc(F)c(Nc2ccc(N3CCN(S(C)(=O)=O)CC3)cc2OC)n1 [Example 26, 1-(4-(4-(5-fluoro-4-(2-methoxy-4-(4-(methylsulfonyl)piperazin-1-yl)phenylamino)pyrimidin-2-ylamino)-3-methoxyphenyl)piperazin-1-yl)ethanone] | > 10 µM | 3.38 µM | 0.406 µM | 0.029 µM |
| COc1cc(N2CCN(C(C)=O)CC2)ccc1Nc1ncc(Cl)c(Nc2ccc(N3CCN(S(C)(=O)=O)CC3)cc2OC)n1 [Example 13, 1-(4-(4-(5-chloro-4-(2-methoxy-4-(4-(methylsulfonyl)piperazin-1-yl)phenylamino)pyrimidin-2-ylamino)-3-methoxyphenyl)piperazin-1-yl)ethanone] | 3.62 µM | 2.48 µM | 0.126 µM | 0.218 µM |
| COc1cc(N2CCN(C(C)=O)CC2)ccc1Nc1ncc(F)c(Nc2ccc(N3CCN(C)CC3)cc2OC)n1 [Example 30, 1-(4-(4-(5-fluoro-4-(2-methoxy-4-(4-methylpiperazin-1-yl)phenylamino)pyrimidin-2-ylamino)-3-methoxyphenyl)piperazin-1-yl)ethanone] | > 10 µM | 7.81 µM | 0.224 µM | 0.017 µM |
